In all, about 390,000 compounds went through this assay and about 2,200 (0.56%) were called active. Inconclusive means that the source gave no clear call. Such entries were picked first, then a sample of the others. Calls follow the shape of the dose curve; as a rule, active = well fitted inhibition curve with a large enough effect; inconclusive = small, poorly fitted or top-dose-only effect; inactive = no such curve, though single readings can be large or run the other way. Potencies of inconclusive entries are doubtful fits and often do not repeat.
biological target: Chromobox protein homolog 1 (Homo sapiens) (UniProt P83916); assay: HTS for Inhibitors of HP1-beta Chromodomain Interactions with Methylated Histone Tails; conditions: AlphaScreen HP1-beta / biotin-H3K9me3 peptide binding; series mostly up to 114 µM; also: nearly all actives have a fitted effect of over 70% in size
Chain of UniProt P83916 (P83916 whole entry, looked up): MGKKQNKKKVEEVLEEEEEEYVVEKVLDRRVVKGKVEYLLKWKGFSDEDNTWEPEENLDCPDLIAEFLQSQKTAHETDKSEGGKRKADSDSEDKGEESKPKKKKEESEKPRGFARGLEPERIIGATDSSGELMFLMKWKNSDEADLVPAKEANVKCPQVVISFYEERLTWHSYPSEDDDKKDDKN
Outline: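 HP1-beta protein (50 nM final) preincubated 30 min at room temperature with biotinylated H3(1-18)K9me3 peptide (50 nM) in PBS pH 7.4, 0.01% Tween-20, then compound added for 30 min. AlphaScreen streptavidin donor/nickel chelate acceptor beads (10 ug/mL final), 30 min dark, luminescence read.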
Potency is read from the fitted curve at half-maximal effect; tags tell the direction and shape of the fitted curve.

**Q.** With `CC1=C([N+](=O)[O-])C(c2ccccc2)C2=C(N1)c1ccccc1C2=O` (configuration not stated) as the molecule, how does the Potency read?
**A.** inconclusive: 15.8 µM [inhibitor, single point]

**Q.** For `O=C(CNCCc1ccc(Cl)cc1)Nc1ccc(C(=O)N2CCCCC2)cc1`, which Potency is on record?
**A.** inconclusive: 56.2 µM [inhibitor, partial curve, poor fit]

**Q.** Which Potency does the source give for `CCCCN(C(=O)c1ccc(Br)o1)C1CCS(=O)(=O)C1` (configuration not stated) here?
**A.** inactive

**Q.** `COc1ccccc1-n1cnc2cc(NCc3ccccc3O)ccc21` was tested. Which Potency did it give?
**A.** inconclusive: 20 µM [inhibitor, full curve]

**Q.** With `Cc1ccccc1NC(=O)CSc1nc(N)c2c3c(sc2n1)CSC(C)(C)C3` as the molecule, how does the Potency read?
**A.** active: 79.4 µM

**Q.** `Cc1ccc([N+](=O)[O-])c(OCCN2CCc3ccccc3C2)c1` was tested. Which Potency did it give?
**A.** inconclusive: 20 µM [inhibitor, full curve]

**Q.** With `Cc1cccc(N2CCN(C3(c4ccccc4)C(=O)c4ccccc4C3=O)CC2C)c1` (configuration not stated) as the molecule, how does the Potency read?
**A.** inconclusive: 12.6 µM [inhibitor, full curve]

**Q.** With `Cc1ccc(C)c(NC(=S)N/N=C2/CCCCc3ccccc32)c1` as the molecule, how does the Potency read?
**A.** inconclusive: 25.1 µM [inhibitor, full curve]

**Q.** `CCCc1cc2c(-c3ccccc3)cc(=O)oc2cc1OCc1ccc(C(=O)O)o1` was tested. Which Potency did it give?
**A.** inconclusive: 79.4 µM [inhibitor, partial curve, poor fit]

**Q.** Which Potency does the source give for `COc1cc(CN2CCC(C)CC2)ccc1OCc1ccccc1` here?
**A.** inconclusive: 17.8 µM [inhibitor, partial curve]

**Q.** With `O=c1c2c(-c3ccc([N+](=O)[O-])cc3)csc2nc2n1CCCCC2` as the molecule, how does the Potency read?
**A.** inconclusive: 50.1 µM [inhibitor, partial curve, poor fit]

**Q.** How did the Potency turn out when `O=C(Nc1ccc(S(=O)(=O)NCC2CCCO2)cc1)c1ccc(F)cc1` (configuration not stated) was run?
**A.** inconclusive: 89.1 µM [inhibitor, single point]

**Q.** How did the Potency turn out when `CC1(C#CC[N+]2(C)CCCCC2)CCC2C(O1)c1ccccc1OC2(C)C` (configuration not stated) was run?
**A.** inconclusive: 39.8 µM [inhibitor, single point]

**Q.** For `CC1C(=O)N2CCCc3cc(NS(=O)(=O)c4ccc(F)cc4)cc1c32` (configuration not stated), which Potency is on record?
**A.** inactive

**Q.** Which Potency does the source give for `O=C(Cn1ncc2c3ccccc3n(Cc3ccccc3F)c2c1=O)NCCCN1CCCC1=O` here?
**A.** inconclusive: 25.1 µM [inhibitor, single point]

**Q.** Which Potency does the source give for `Cc1ccc(NC(=O)CCCc2ccccc2)c([N+](=O)[O-])c1` here?
**A.** inconclusive: 14.1 µM [inhibitor, partial curve, poor fit]

**Q.** How did the Potency turn out when `OCC(O)C(O)C(O)C(O)C1NCCS1` (configuration not stated) was run?
**A.** inconclusive: 70.8 µM [inhibitor, partial curve]

**Q.** How did the Potency turn out when `O=C(COc1cccc(C(F)(F)F)c1)N1CCN(c2ccc(O)cc2)CC1` was run?
**A.** active: 79.4 µM

**Q.** Which Potency does the source give for `c1ccc(COc2ccc(OCCN3CCCCC3)cc2)cc1` here?
**A.** inconclusive: 39.8 µM [inhibitor, partial curve]

**Q.** For `O=S(=O)(N/N=C\c1cccn1-c1ccccc1)c1ccc2ccccc2c1`, which Potency is on record?
**A.** inconclusive: 17.8 µM [inhibitor, full curve, poor fit]

**Q.** With `Cc1ccc(NC(=O)CSc2nnc(N)s2)c(C)c1` as the molecule, how does the Potency read?
**A.** inactive

**Q.** How did the Potency turn out when `CC1CN(C(=O)c2ccc(-c3ccccc3Cl)o2)CC(C)O1` (configuration not stated) was run?
**A.** inconclusive: 35.5 µM [inhibitor, single point]

**Q.** How did the Potency turn out when `CCN1/C(=C\c2ccc3cc(C)ccc3[n+]2CC)Sc2cc(C)c(C)cc21` was run?
**A.** inconclusive: 50.1 µM [inhibitor, partial curve]

**Q.** For `CCN(CC)c1ccc(NC(=O)CSc2ccsc2[N+](=O)[O-])c(C)c1`, which Potency is on record?
**A.** inconclusive: 50.1 µM [inhibitor, partial curve, poor fit]

**Q.** How did the Potency turn out when `O=C1CCC(C(=O)Nc2cc(C(F)(F)F)ccc2-n2cncn2)=NN1` was run?
**A.** inactive

**Q.** For `CC1CN(C(=O)CCNS(=O)(=O)c2ccc(Br)cc2)CC(C)O1` (configuration not stated), which Potency is on record?
**A.** inactive

**Q.** Which Potency does the source give for `Cc1ccc(-n2c(=O)c3oc4ccccc4c3n(CC(=O)Nc3ccccc3)c2=O)cc1C` here?
**A.** inactive

**Q.** How did the Potency turn out when `CCc1cccc(N=c2c([N+](=O)[O-])nn(-c3ccc(Cl)cc3)n2O)c1` was run?
**A.** inconclusive: 39.8 µM [inhibitor, single point]

**Q.** `Cc1ccc(N=N/C(=C\O)C(=O)c2ccc(Cl)cc2)cc1` was tested. Which Potency did it give?
**A.** inconclusive: 14.1 µM [inhibitor, full curve, poor fit]

**Q.** With `COc1ccc(C2CC(c3ccc(Cl)cc3)=NN2c2ccc(S(N)(=O)=O)cc2)cc1` (configuration not stated) as the molecule, how does the Potency read?
**A.** inconclusive: 100 µM [inhibitor, single point]

**Q.** With `COC(=O)C1=COC(C)C2CN3CCc4c([nH]c5cc(OC)c(OC)cc45)C3CC12` (configuration not stated) as the molecule, how does the Potency read?
**A.** inconclusive: 35.5 µM [inhibitor, partial curve, poor fit]

**Q.** How did the Potency turn out when `O=C(C[C@H]1C(=O)N(CCc2ccccc2)C[C@@H]1Cc1ccccc1)Nc1ccccc1` was run?
**A.** inactive

**Q.** `O=C1CCc2cc(S(=O)(=O)NC(Cc3ccccc3)C(=O)N3CCN(c4ccccn4)CC3)ccc2N1` (configuration not stated) was tested. Which Potency did it give?
**A.** inactive

**Q.** How did the Potency turn out when `CCCC(=O)N1CCN(c2ccc(NC(=S)NC(=O)c3cccc(C)c3)cc2)CC1` was run?
**A.** inconclusive: 39.8 µM [inhibitor, partial curve]

**Q.** With `COc1ccccc1CNc1ncc(-c2ccc(F)cc2)n1C` as the molecule, how does the Potency read?
**A.** inconclusive: 20 µM [inhibitor, full curve, poor fit]

**Q.** `C=CCc1ccccc1OCC(O)CN1CCN(CCN2C(=O)c3cccc4cccc(c34)C2=O)CC1` (configuration not stated) was tested. Which Potency did it give?
**A.** inconclusive: 50.1 µM [inhibitor, partial curve]

**Q.** Which Potency does the source give for `C=CCn1c(=O)c2c(nc3n2CCS3)n(C)c1=O` here?
**A.** inactive

**Q.** `COC(=O)c1ccc(NC(=O)COC(=O)C2CCC2)cc1` was tested. Which Potency did it give?
**A.** inactive

**Q.** `COC(=O)C1=COC(OC2OC(CO)C(O)C(O)C2O)C2C1C=CC2(O)CO` (configuration not stated) was tested. Which Potency did it give?
**A.** active: 20 µM

**Q.** `COc1ccc(-c2cc3ccccc3n2CC(O)CN2CCC(C)CC2)cc1` (configuration not stated) was tested. Which Potency did it give?
**A.** inconclusive: 50.1 µM [inhibitor, partial curve, poor fit]

**Q.** How did the Potency turn out when `CNC(=O)c1c(I)c(C(=O)NCC(=O)Nc2c(I)c(C(=O)O)c(I)c(C(=O)NCCO)c2I)c(I)c(N(C)C(C)=O)c1I` was run?
**A.** inactive

**Q.** For `Cc1ccc(NC(=O)c2ncn(CCCN3CCN(Cc4cccc5ccccc45)CC3)n2)cc1C`, which Potency is on record?
**A.** inconclusive: 39.8 µM [inhibitor, partial curve]

**Q.** Which Potency does the source give for `O=c1nc(-c2ccccc2Cl)c2cc(F)ccc2[nH]1` here?
**A.** inactive

**Q.** How did the Potency turn out when `Cc1ccc(N2CCN(C(=O)c3cn(C)c4ccc(S(=O)(=O)N(C)C5CCCCC5)cc4c3=O)CC2C)cc1` (configuration not stated) was run?
**A.** inactive

**Q.** For `Cc1ccc(CNc2ccc(S(=O)(=O)N3CCOCC3)cc2[N+](=O)[O-])cc1`, which Potency is on record?
**A.** inconclusive: 25.1 µM [inhibitor, single point]

**Q.** `O=C(CSc1nnc(CNC(=O)c2c(F)cccc2Cl)o1)Nc1cccc(F)c1` was tested. Which Potency did it give?
**A.** inactive

**Q.** How did the Potency turn out when `COc1cccc(C(=O)NC2CCN(CC(=O)Nc3nccs3)CC2)c1` was run?
**A.** inactive

**Q.** `CN(C)c1ccc([C@@H]2[C@@H]([N+](=O)[O-])[C@H]3C=Cc4ccccc4N3[C@H]2C(=O)c2ccc(Cl)cc2)cc1` was tested. Which Potency did it give?
**A.** inconclusive: 79.4 µM [inhibitor, partial curve, poor fit]

**Q.** How did the Potency turn out when `COc1ccc(S(=O)(=O)N2CCN(C(=O)c3cc4c(s3)CCC4)CC2)cc1` was run?
**A.** inconclusive: 50.1 µM [inhibitor, partial curve, poor fit]

**Q.** `C[N+]12CCCCC1C(COC(=O)c1ccc3c(c1)OCO3)CCC2` (configuration not stated) was tested. Which Potency did it give?
**A.** inconclusive: 79.4 µM [inhibitor, partial curve, poor fit]

**Q.** For `CC1CC(C)CN(CCCNC(=O)c2ccc(CS(=O)(=O)Cc3cccc(Cl)c3)o2)C1` (configuration not stated), which Potency is on record?
**A.** inactive

**Q.** How did the Potency turn out when `S=C(NCCCc1cnc[nH]1)NCCCN(Cc1ccc(Cl)cc1)c1ncc(Br)cn1` was run?
**A.** inconclusive: 35.5 µM [inhibitor, partial curve]

**Q.** Which Potency does the source give for `CCOC(=O)c1nnc2c(Br)c(-c3ccccc3)nn2c1C` here?
**A.** inconclusive: 39.8 µM [inhibitor, single point]

**Q.** `CN(Cc1ccco1)c1ncnc2ccc(-c3ccc4c(c3)OCO4)cc12` was tested. Which Potency did it give?
**A.** inactive

**Q.** How did the Potency turn out when `Fc1ccccc1-n1[nH]nnc1=S` was run?
**A.** inconclusive: 17.8 µM [inhibitor, partial curve, poor fit]

**Q.** Which Potency does the source give for `CN(C)c1ccc(C(CNS(=O)(=O)c2ccc(Br)cc2)N2CCOCC2)cc1` (configuration not stated) here?
**A.** inconclusive: 44.7 µM [inhibitor, partial curve, poor fit]

**Q.** `COc1cc(OC)cc(C(=O)n2cnnc2N)c1` was tested. Which Potency did it give?
**A.** inactive

**Q.** Which Potency does the source give for `CCOC(=O)NC1(C(F)(F)F)NC(=O)N(Cc2ccco2)C1=O` (configuration not stated) here?
**A.** inconclusive: 79.4 µM [inhibitor, single point]

**Q.** For `CC1(c2ccccc2)CC(C)(C)N2C(=O)C3(C(C#N)=C(N)Oc4cc(O)ccc43)c3cccc1c32` (configuration not stated), which Potency is on record?
**A.** inconclusive: 35.5 µM [inhibitor, partial curve, poor fit]

**Q.** `COC(=O)c1cc(OC)c(OC)cc1NCC(=O)Nc1ccc(C)cc1` was tested. Which Potency did it give?
**A.** inconclusive: 79.4 µM [inhibitor, single point]

**Q.** How did the Potency turn out when `CC(=O)c1ccc(NC(=O)CNCc2cccs2)cc1` was run?
**A.** inconclusive: 31.6 µM [inhibitor, single point]

**Q.** Which Potency does the source give for `O=C(N/N=C/c1ccc[nH]1)c1ccccc1OCc1ccccc1Cl` here?
**A.** inconclusive: 35.5 µM [inhibitor, partial curve]

**Q.** `CC(/C=N/n1c(COc2ccccc2)n[nH]c1=S)=C\c1ccccc1` was tested. Which Potency did it give?
**A.** inconclusive: 50.1 µM [inhibitor, partial curve, poor fit]

**Q.** Which Potency does the source give for `CC(/C=C1\N=C(SCc2ccccc2Cl)SC1=O)=C\c1ccccc1` here?
**A.** inconclusive: 39.8 µM [inhibitor, single point]

**Q.** With `NC(=O)c1ccccc1OC1CCC1` as the molecule, how does the Potency read?
**A.** inactive

**Q.** For `CCOC(=O)C1=C(c2ccccc2)NC(=O)NC1c1ccc(OC)cc1OC` (configuration not stated), which Potency is on record?
**A.** inconclusive: 89.1 µM [inhibitor, single point]

**Q.** For `COc1cccc(C2C(C(C)=O)=C(O)C(=O)N2Cc2ccco2)c1` (configuration not stated), which Potency is on record?
**A.** inconclusive: 39.8 µM [inhibitor, single point]
